# From paper PMC4336329 (PLoS ONE, 2015)
# Screen size: about 310,000 compounds; about 14,000 (4.5%) showed an effect of 50% or more. Effects have a minus sign here. The list shows a part of the results.
# Biological target: human ether-à-go-go-related gene (hERG) potassium channel (human, UniProt Q12809)
# Experiment: primary screen, population patch clamp on CHO cells stably expressing hERG
# 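Further: peak tail current of the secondary pulse compared with the same well before compound.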
# Chain of human ether-à-go-go-related gene (hERG) potassium channel (Q12809 whole entry, looked up): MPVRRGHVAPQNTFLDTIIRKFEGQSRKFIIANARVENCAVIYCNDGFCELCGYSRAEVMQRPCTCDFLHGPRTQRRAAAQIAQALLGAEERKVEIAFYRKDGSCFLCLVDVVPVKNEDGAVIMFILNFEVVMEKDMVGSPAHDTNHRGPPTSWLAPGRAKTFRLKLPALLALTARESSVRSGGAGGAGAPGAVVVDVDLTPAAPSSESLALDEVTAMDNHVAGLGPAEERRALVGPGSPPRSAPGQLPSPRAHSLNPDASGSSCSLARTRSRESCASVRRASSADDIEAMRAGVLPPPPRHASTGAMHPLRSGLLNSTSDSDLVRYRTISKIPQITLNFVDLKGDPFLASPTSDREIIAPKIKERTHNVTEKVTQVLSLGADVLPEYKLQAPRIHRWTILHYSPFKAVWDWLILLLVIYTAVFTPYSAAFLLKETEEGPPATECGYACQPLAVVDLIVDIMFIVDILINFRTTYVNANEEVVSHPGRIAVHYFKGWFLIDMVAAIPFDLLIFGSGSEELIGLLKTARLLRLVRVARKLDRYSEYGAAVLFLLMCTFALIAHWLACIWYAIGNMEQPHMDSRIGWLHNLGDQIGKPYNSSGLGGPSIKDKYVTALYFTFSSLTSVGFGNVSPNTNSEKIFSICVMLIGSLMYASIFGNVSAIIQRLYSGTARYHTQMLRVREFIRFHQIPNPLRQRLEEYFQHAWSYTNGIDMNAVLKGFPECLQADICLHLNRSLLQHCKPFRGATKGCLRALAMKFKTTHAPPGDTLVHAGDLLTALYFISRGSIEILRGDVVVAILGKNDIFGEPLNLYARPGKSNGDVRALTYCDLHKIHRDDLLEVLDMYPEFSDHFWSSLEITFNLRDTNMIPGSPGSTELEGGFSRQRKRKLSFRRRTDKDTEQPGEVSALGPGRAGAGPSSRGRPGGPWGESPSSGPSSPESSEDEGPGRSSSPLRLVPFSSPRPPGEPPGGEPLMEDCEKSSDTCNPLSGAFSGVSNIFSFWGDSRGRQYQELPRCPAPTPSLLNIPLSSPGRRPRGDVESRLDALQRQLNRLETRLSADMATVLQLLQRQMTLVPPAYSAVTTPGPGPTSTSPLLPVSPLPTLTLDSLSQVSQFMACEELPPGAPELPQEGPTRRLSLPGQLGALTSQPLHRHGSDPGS
row,Structure (SMILES),"hERG current change (%, negative = inhibition) at 10uM [%]"
1,O=C(c1ccc2ccccc2c1)N1CCOCC1,-18.6
2,Br.N=c1n(CCc2ccccc2)c2ccccc2n1Cc1ccccc1F,-62.6
3,CCOC(=O)c1c(C)[nH]c(C(=O)N/N=C\c2ccccc2Cl)c1C,2.2
4,Cc1nc2nc(CNC(=O)OC(C)(C)C)nn2c(C)c1CCC(=O)Nc1ccc2c(c1)OCO2,-13.3
5,CCCOC(=O)c1ccccc1C(=O)OCCC,-3.24
6,CCC1(C)Cc2c(sc3nc(SC)[nH]c(=O)c23)CO1 (centres unmarked),1.51
7,COc1cccc(CN2CCN(c3ccc(F)cc3)C2=O)c1,-21.4
8,Clc1ccccc1Cn1nnc2c(NCCN3CCOCC3)ncnc21,-8.27
9,Cc1ccc(-c2csc3nc[nH]c(=S)c23)cc1C,27.5
10,C[C@H](NC(=O)c1nc[nH]c1C(=O)N[C@@H](Cc1ccccc1)C(=O)OC(C)(C)C)c1ccccc1,9.61
11,COc1ccc(CCNC(=O)c2ccc(S(=O)(=O)N(C)c3ccccc3)cc2)cc1OC,-7.94
12,CC1(C)NC(=O)N(c2ccc([N+](=O)[O-])c(C(F)(F)F)c2)C1=O,10.5
13,Cc1ccc2[nH]c(=O)c(CN(Cc3cccs3)S(=O)(=O)c3ccc4c(c3)OCCO4)cc2c1,-0.714
14,Cc1nn(CC(=O)NCCCc2ccccc2)c(=O)c2cccn12,-17.1
15,COc1ccc2[nH]cc(CCNC(=O)Nc3ccccc3C)c2c1,13.4
16,Fc1ccccc1N1CCN(Cc2nc(-c3ccccc3)no2)CC1,-6.65
17,Cc1cc(NC(=O)CSCC(=O)Nc2ccccc2OC(F)F)no1,15.1
18,COc1ccc(/C=C2\SC(=S)N(c3cccnc3)C2=O)cc1,-4.39
19,Cc1cc(Br)cc(C)c1NC(=S)NC(=O)CC(C)C,6.93
20,COc1ccc(C(=O)N/N=C2\CCc3ccccc32)cc1OC,8.11
21,Cc1cc(C)n(-c2nnc(N3CCN(c4ccccc4)CC3)nn2)n1,-16
22,O=C(COc1cccc2ccccc12)N1CCN(c2ccccn2)CC1,-25.1
23,CCOc1ccc(-c2noc(CCC(=O)O)n2)cc1,-1.59

row,Structure (SMILES),"hERG current change (%, negative = inhibition) at 10uM [%]"
1,Cc1cc(C(C)(C)C)cc(C)c1S(=O)(=O)N1CC(=O)Nc2ccccc21,20.5
2,O=C(NCCCN1CCCC1=O)c1ccc2c(c1)OCO2,5.94
3,COc1cc(/C=N/NC(=O)CNC(=O)c2ccncc2)ccc1OC(C)=O,3.31
4,CCOc1cccc(NC(=O)CSc2sc3c(O)cc(=O)[nH]c3c2C#N)c1,18.6
5,COc1ccc(OC)c(NC(=O)C2CC(=O)N(CCc3ccccc3)C2)c1 (centres unmarked),2.72
6,CC(C)(C)c1[nH]nc2c1C(c1ccsc1)C(C#N)=C(N)O2 (centres unmarked),16.6
7,Cc1ccc2nc(C(F)OC(F)(F)F)[nH]c2c1 (centres unmarked),-2.79
8,O=C(CC(=O)Nc1ccc(Cl)cc1)N/N=C\c1cccc(F)c1,16.6
9,COc1ccc(CCC(=O)OCC(=O)c2c(N)n(CC(C)C)c(=O)n(C)c2=O)cc1,-33.4
10,NS(=O)(=O)c1ccc(CCNC(=O)COC(=O)CC(c2ccccc2)c2ccccc2)cc1,-42
11,O=C(O)CSc1c(O)c2ccccc2[nH]c1=O,1.29
12,NC(=O)C1CCN(C(=O)COc2cccc3ccccc23)CC1,-6.03
13,Cc1ccc(CC(=O)Nc2nnc(-c3ccc(F)cc3)o2)c(C)c1,6.04
14,COc1ccc(C(CNC(=O)C2CC(=O)N(Cc3ccccc3)C2)N2CCOCC2)cc1 (centres unmarked),-14.3
15,CC(Cc1ccccc1)NC(=O)C1CCCNC1=O (centres unmarked),4.99
16,COc1ccc(C(=O)O/N=C(\C)c2ccccc2)cc1,1.79
17,O=C(Cn1cnc2c(cnn2-c2ccc(F)cc2)c1=O)OCc1ccccc1,6.95
18,O=C(Nc1nnc(SCc2c(Cl)cccc2Cl)s1)c1cccc([N+](=O)[O-])c1,16.4
19,Cc1cc(Br)ccc1NC(=O)c1cnc(N2CCN(c3ccccn3)CC2)c2ccccc12,10
20,CCN1CCN(c2ncc(C(=O)Nc3c(F)cc(F)cc3Br)c3ccccc23)CC1,-60
21,Cc1ccc(CCNC(=O)C2CCCN(S(=O)(=O)c3c(C)noc3C)C2)cc1 (centres unmarked),3.8
22,O=C(Nc1ccccc1)N1CCCC(CNS(=O)(=O)Cc2ccccc2)C1 (centres unmarked),-6.25
23,O=C(c1cc(Cl)nc2ccccc12)N1CCN(S(=O)(=O)c2cccc(C(F)(F)F)c2)CC1,-12.1

row,Structure (SMILES),"hERG current change (%, negative = inhibition) at 10uM [%]"
1,COC(=O)c1cc2sc(Cl)cc2n1CC(=O)Nc1cccc(SC)c1,-10.9
2,COc1ccc(C)cc1NC(=O)c1ccc2c(SCC(=O)O)c3c(nc2c1)CCCC3,10.9
3,CCn1cc(C(=O)N(C)c2ccc(OC)cc2)c2cc(OC)c(OC)cc2c1=O,11.5
4,COc1cc2c(cc1NC(=O)c1cccnc1)oc1ccccc12,0.994
5,CCN(CC(=O)NCc1cccs1)C(=O)c1cc(S(=O)(=O)N2CCCCC2)ccc1Cl,-40.2
6,O=C(NCCc1ccc(Cl)cc1)C1(c2ccccc2)CC1,-7.62
7,Cc1ccc(NC(=O)COC(=O)c2ccnn2C)cc1,12.6
8,CCOc1ccc(S(=O)(=O)N2CCOCC2)cc1NC(=O)CSCC(=O)Nc1ccc(C)cc1,-18.2
9,CC(=O)N/N=C/c1c(C)[nH]n(-c2ccccc2)c1=O,11.2
10,COc1ccc(C(=O)Nc2nc3ccccc3[nH]2)cc1,16.4
11,COc1ccccc1OCCNC(=O)c1cc(=O)[nH]c2ccccc12,-4.62
12,COc1ccc(/C=C/C(=O)NC(=S)N2CCN(c3ccccc3OC)CC2)cc1,15.9
13,NC(=O)c1nnsc1-c1ccc(-c2snnc2C(N)=O)cc1,14.6
14,CCCCN1CC[C@H]2C=CC[C@@H](C(=O)N3CCN(c4ccccc4)CC3)[C@H]2C1=O,-1.87
15,CC(C)(C)C(=O)Cn1ncc(N2CCCC2)c(Br)c1=O,1.13
16,CCOC(=O)c1c(C)c(C(=O)NCCCOC)c(C)n1C,-11.6
17,O=C(NCc1ccccc1)c1onc(CS(=O)(=O)c2ccc(Cl)cc2)c1C(=O)NCc1ccccc1,14.4
18,Cc1nc(=O)c(-c2ccccc2)c(C)n1-c1cccc(/C=C/C(=O)O)c1,16
19,CCOc1ccc(/C=C(\C#N)C(=O)Nc2cccnc2)cc1,-6.49
20,CC1CC1C(=O)Nc1nc(-c2cccs2)c(-c2cccs2)s1 (centres unmarked),6.66
21,CC12CN(NC(=O)c3ccccc3F)C3(C#N)CC1CCC23C (centres unmarked),-1.89
22,Cc1ccc(C(=O)CCNc2ccc(F)c(Cl)c2)o1,2.21
23,COc1ccc(-c2cc(C(F)(F)F)c(C#N)c(SCC(=O)Nc3ccccc3C#N)n2)cc1,6.76

row,Structure (SMILES),"hERG current change (%, negative = inhibition) at 10uM [%]"
1,Nc1nc(/C=C/c2ccc(F)cc2)nc(-c2ccccc2O)n1,17.8
2,COc1ccc(C(=O)Nc2nc3ccccc3[nH]2)cc1S(=O)(=O)N1CCCC1,-52.8
3,Cc1nn(C)c(Cl)c1CN1CCC(CO)(CC2CCCCO2)CC1 (centres unmarked),8.45
4,COc1cc(/C=N/NC(=O)c2cccc(S(=O)(=O)N3CCCCC3)c2)cc(Br)c1O,-18
5,COc1ccc(C2=C(SC)CC2=NC(C)(C)C)cc1,-16.8
6,CC1=C(C#N)C(C)C2=C(CC(C)(C)CC2=O)N1 (centres unmarked),-6.59
7,N=c1c(C(=O)NCC2CCCO2)cc2c(=O)n3ccccc3nc2n1Cc1ccccc1Cl (centres unmarked),-67.9
8,CCC1CCCCN1C(=O)CCNS(=O)(=O)c1ccc2c(c1)oc(=O)n2C (centres unmarked),-6.82
9,Cc1cccc(S(=O)(=O)Nc2ccc(-c3nc4ccc(C)cc4s3)cc2)c1,26.2
10,Cc1cc(C)c(S(=O)(=O)c2ccccc2)c(Cl)n1,-3.45
11,O=C(Nc1ccc(S(=O)(=O)N2CCOCC2)cc1)C1CCCCC1,-1.38
12,CN(C)CCNC(=O)Cn1ccc2cc(S(=O)(=O)N3CCCCCC3)ccc21,-25.4
13,CCCCC(=O)Nc1cccc(C(C)O)c1 (centres unmarked),19.8
14,CC(=O)c1ccc(N2CCN(C(=O)c3n[nH]c4ccccc34)CC2)cc1,-34.3
15,CC(C)(CNC(=O)c1cc2c(s1)CCCC2)N1CCOCC1,-30.4
16,Cc1ccc(NC(=O)COC(=O)C2(c3ccc(Cl)cc3)CCCC2)cc1,17.4
17,CC(C)Oc1cccc(C(=O)C2CCCN(C(=O)c3ccoc3)C2)c1 (centres unmarked),-14.7
18,O=S(=O)(Nc1ccc(S(=O)(=O)N2CCCC2)cc1)c1ccccc1Br,3.27
19,NC(=O)c1cc(S(=O)(=O)NCCc2ccc(Cl)cc2)cs1,13.9
20,CC(C)(C)c1ccccc1OCCCCCn1ccnc1,-37.7
